Among the data in the RNAGym collection of RNA variant scans (doi:10.1093/nar/gkz1192) are self-cleavage values, retold here.

To fix the notation:
B1: CPEB3 Ribozyme (parent)
chain: UAACAGGGGGCCACAGCAGAAGCGUUCACGUCGCAGCCCCUGUCAGAUUCUGGUGAAUCUGCGAAUUCUGCUGUAUAUCUC

The source gives no read counts; variants with many changes may rest on few reads.

In the series the parent is B1. In words: self-cleavage, relative activity (ratio to wild type); higher = more cleavage; in vitro, sequencing. Summed up:
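After error-prone PCR and barcoding, CPEB3 ribozyme mutant libraries were transcribed with T7 RNA polymerase at 37°C for 5 hours, then given 15 min with DNase I before an EDTA stop, and they cleaved during both steps. Reverse transcription with template switching preceded Illumina sequencing. Relative activity divides a variant's cleaved/total read fraction by the unmutated ribozyme's. At least 5 reads were required per variant, and three batches were averaged.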
As for A15G U51G U66C U72C, the self-cleavage is 0.49. As to A15G U60A U67G A77G U80C, the self-cleavage was found to be 0.14. As for A15G U49C U54A U72C A75U U80A, the self-cleavage stood at 0.83. On to A15G U51C G63A, for which the self-cleavage was determined as 0.43.

On to A15G U51A A56G, for which the self-cleavage is 0.54. The result for A15G U54C U66C U74C reads 0.28; that for A15U A18U U26C A65U U80C, 0.17. Regarding A15G U49A U54C G55A G70A, the self-cleavage came out at 0.11. On to A15G U43C U54C, for which the self-cleavage was 0.39. The result for A15G U43C U54A reads 0.56; that for A15U A18G C39U, 0.39; that for A15G U48C U72A U76C, 0.31. In the case of A15U A18C A56G U60C, the self-cleavage came out at 0.18.

In the case of A15U A18G U58C, the self-cleavage was found to be 0.21. Turning to A15G U60A A65G, the self-cleavage was 0.39. For the variant A15G U78A U80C, the self-cleavage was 1.05. As to A15G U69C U72C A77U, the self-cleavage was determined as 0.95.

Turning to A15U A18G G30U U69C, the self-cleavage came out at 0.15. For the variant A15G U51C U58C U60C, the self-cleavage was found to be 0.15.

For A15U A18G U25A U48C A64G U69C, the self-cleavage amounted to 0.04.

As to A15G U72C U74C, the self-cleavage was found to be 1.21. The result for A15G U51C A64U reads 0.26; that for A15G U67C A77U, 0.15; that for A15G U54C A77U, 0.72. Regarding A15G U51A A56U U58A U67C, the self-cleavage turned out to be 0.21.

For A15U A18G C40U, the self-cleavage was determined as 0.32.

In the case of A15U A18U U51C A64G, the self-cleavage stood at 0.15. Turning to A15G U48C U66A U67C, the self-cleavage came out at 0.38. As to A15G U48G U51G U78C, the self-cleavage is 0.24. The result for A15G U49C A65G reads 0.08; that for A15G U60A A65C U78C, 0.21; that for A15G U48C A56U, 0.2. With A15G U51A U66C, the self-cleavage was 0.27.

Consider A15G U54A U74C, for which the self-cleavage turned out to be 1.2. As for A15U A18G U60A U67C A77G, the self-cleavage worked out at 0.16. Take A15U A18U A47C: the self-cleavage came to 0.16. Take A15U A18G A56C U60C: the self-cleavage amounted to 0.07. The result for A15G U51A A75U reads 0.56. For A15G U51A A57U U72C, the self-cleavage came out at 0.86.

Turning to A15U A18U U26C A65G, the self-cleavage was found to be 0.19.

As to A15U A18G C38U A56C C59A, the self-cleavage is 0.07. Consider A15U A18G U25C U49C G63U A77G, for which the self-cleavage turned out to be 0.15. With A15U A18G C29G A75U, the self-cleavage came out at 0.07.

Regarding A15G U51C U66C A75G, the self-cleavage stood at 0.18. Consider A15U A18U A77U, for which the self-cleavage came to 0.31.

With A15G U58C U60C U74G A77C, the self-cleavage came to 0.18. Consider A15U A18U G33U A57U U60C, for which the self-cleavage stood at 0.04. For A15G U49C U51C A57U U74C, the self-cleavage was found to be 0.28. For A15G U51G U78C, the self-cleavage was 0.58.

With A15U A18U A20C, the self-cleavage came to 0.18. As to A15U A18G U58C U69A, the self-cleavage is 0.03.

In the case of A15U A20G A21G U69A U78C, the self-cleavage was found to be 0.16. As for A15G U43C U58C G63A U72C, the self-cleavage was 0.18. For A15U A20C U69A, the self-cleavage came to 0.14. Regarding A15G U48C C68G U74A, the self-cleavage was found to be 0.13. In the case of A15U A18G C27U C32U U41C U43A, the self-cleavage stood at 0.26. Regarding A15G U49C U60A U66C A77G, the self-cleavage turned out to be 0.03.

Consider A15G U72C U80C, for which the self-cleavage stood at 1.14. In the case of A15G U49C U51A U66C, the self-cleavage came out at 0.23. A15U A18U U26G A45U C50U A56U: the self-cleavage is 0.15. The result for A15G U43C U49C G52A reads 0.1; that for A15U A18U A20U U26A C39U U51G U58C, 0.15. Regarding A15U A18G A65G U80C, the self-cleavage turned out to be 0.16. A15G U49C A75U: the self-cleavage was 0.27. Turning to A15U A18G A47U U72A, the self-cleavage was found to be 0.08. As for A15G U49C U60C U67C U69C U76A, the self-cleavage was 0.2. With A15U A18U A56U A57G G73A, the self-cleavage worked out at 0.1. Consider A15U A18G U41G C44U A45U A57G, for which the self-cleavage was 0.08. For the variant A15G U54A A65G U67A U80A, the self-cleavage was determined as 0.3. Consider A15U A18G A45C A47G A64G U80C, for which the self-cleavage is 0.04. The result for A15G U60C A65G reads 0.23; that for A15G U54C A56U U78A, 0.48. The result for A15U A18U A28U U41C A64G A75G reads 0.05. Turning to A15U A18U G63A, the self-cleavage was found to be 0.13. For the variant A15G U66C U78C, the self-cleavage was found to be 0.29.

Regarding A15G U54C U72C U78C, the self-cleavage amounted to 1.24.

As to A15U A18U U48C A57G U72C, the self-cleavage stood at 0.31. Turning to A15G U60C A77U, the self-cleavage is 0.22. With A15G U60C C79A, the self-cleavage stood at 0.44. On to A15G U69A G70A, for which the self-cleavage was found to be 0.18.

As to A15U A18C U25C C29A A35G A64U U78A, the self-cleavage came to 0.04. The result for A15G U74G A75U U76A reads 0.87; that for A15G U49C A57G A65G U69C, 0.04; that for A15G U60C U69A A75U, 0.22.
